Experimental data reported in a compilation of properties of binary mixtures (doi:10.1016/j.molliq.2012.02.019).
The densities may have been worked out from excess volumes.

Assay: xn = mol fraction of the nth substance listed
Conditions: 101 kPa

CCCCCCCC[N+](C)(CCCCCCCC)CCCCCCCC.[Cl-] + COC(=O)OC
mass density [kg/m3]
Conditions | x2 = 0 | x2 = 0.35 | x2 = 0.55 | x2 = 0.67 | x2 = 0.76 | x2 = 0.83 | x2 = 0.88 | x2 = 0.92 | x2 = 0.95 | x2 = 0.98
298.15 K | – | 897 | 907 | – | 944.4 | 956.8 | – | 997.5 | 1019.9 | 1040
303.15 K | 884 | 894 | – | 916 | 939.7 | 953.3 | 970.3 | 994.6 | 1014.6 | 1033.4
308.15 K | 880 | 891 | 900 | 913 | – | 950.3 | 967.4 | 991.6 | – | –
313.15 K | 877 | 888 | – | 910 | 933.8 | 946.8 | 963.2 | – | 1002.2 | –
318.15 K | 874 | 885 | 896 | 906 | 930 | 943 | 960 | 986 | 996 | 1016

COC(=O)OC + CCCCCCCC[N+](C)(CCCCCCCC)CCCCCCCC.[Cl-]
x1 = 1
Conditions | mass density [kg/m3]
303.15 K | 1056.7
308.15 K | 1043.4
